Measurements: publication PMC4457033
Where a chain is given by its changes, count along the chain named. Where two headings read alike, the source gives them in different places. No constants are given. Whether binding was seen depends on the method and setting. For some of these results: Binding seen in cells or lysates may run through a third protein. Some entries that bind do so weakly or less than the wild type. For some of these results: Tags and fused reporters may be left off the sequences shown.

Sequences of proteins named here, by UniProt entry; tags and fusion partners are left off. Residues count along the entry.
UniProt Q9Z138, residues 34-944: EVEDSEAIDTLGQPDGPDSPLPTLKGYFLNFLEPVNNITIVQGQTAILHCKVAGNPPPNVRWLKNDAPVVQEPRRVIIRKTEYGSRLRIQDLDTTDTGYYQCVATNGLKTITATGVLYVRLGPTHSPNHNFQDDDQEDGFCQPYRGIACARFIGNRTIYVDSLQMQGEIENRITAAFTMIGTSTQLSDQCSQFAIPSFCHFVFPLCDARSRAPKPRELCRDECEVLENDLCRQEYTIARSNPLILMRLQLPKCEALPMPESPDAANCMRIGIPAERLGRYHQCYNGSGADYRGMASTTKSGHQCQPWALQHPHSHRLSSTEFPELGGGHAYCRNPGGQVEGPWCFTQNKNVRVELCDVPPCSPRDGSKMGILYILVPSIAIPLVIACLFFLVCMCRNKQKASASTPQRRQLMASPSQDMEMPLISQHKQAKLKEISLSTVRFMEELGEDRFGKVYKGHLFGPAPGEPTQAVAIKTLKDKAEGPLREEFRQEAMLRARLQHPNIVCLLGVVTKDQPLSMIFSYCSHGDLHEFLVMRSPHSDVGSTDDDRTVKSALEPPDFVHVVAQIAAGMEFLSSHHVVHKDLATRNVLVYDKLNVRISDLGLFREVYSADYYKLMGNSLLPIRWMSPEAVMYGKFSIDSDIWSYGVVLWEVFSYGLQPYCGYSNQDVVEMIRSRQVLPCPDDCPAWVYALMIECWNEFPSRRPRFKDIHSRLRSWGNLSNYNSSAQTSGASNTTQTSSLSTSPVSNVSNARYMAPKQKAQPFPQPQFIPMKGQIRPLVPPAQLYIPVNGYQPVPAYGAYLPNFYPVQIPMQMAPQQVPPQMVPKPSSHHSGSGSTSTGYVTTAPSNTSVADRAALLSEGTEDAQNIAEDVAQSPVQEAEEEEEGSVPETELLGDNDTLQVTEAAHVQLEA
UniProt P02769, residues 25-607: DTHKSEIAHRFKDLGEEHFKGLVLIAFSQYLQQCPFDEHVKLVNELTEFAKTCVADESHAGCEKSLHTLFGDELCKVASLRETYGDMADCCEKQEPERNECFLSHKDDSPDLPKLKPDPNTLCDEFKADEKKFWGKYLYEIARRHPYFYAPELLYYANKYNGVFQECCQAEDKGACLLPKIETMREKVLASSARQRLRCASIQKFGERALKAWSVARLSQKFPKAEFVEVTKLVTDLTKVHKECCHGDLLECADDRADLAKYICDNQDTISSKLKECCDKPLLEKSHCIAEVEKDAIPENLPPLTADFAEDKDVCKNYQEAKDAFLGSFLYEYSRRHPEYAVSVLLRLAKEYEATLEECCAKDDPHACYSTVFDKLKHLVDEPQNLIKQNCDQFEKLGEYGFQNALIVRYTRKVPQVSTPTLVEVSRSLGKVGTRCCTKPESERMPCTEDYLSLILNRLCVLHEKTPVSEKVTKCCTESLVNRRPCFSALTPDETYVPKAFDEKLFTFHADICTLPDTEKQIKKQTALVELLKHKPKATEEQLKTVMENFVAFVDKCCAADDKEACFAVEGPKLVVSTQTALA

Assays:
[1] = target: endogenous TMEM67 (not stated (endogenous in HEK293 or IMCD3 cells)) (UniProt Q5HYA8); assay: co-IP; immunoprecipitation with rabbit anti-TMEM67 (endogenous TMEM67) from whole-cell extracts of cells transfected with FLAG-tagged constructs; controls no antibody and irrelevant goat and rabbit polyclonal antibodies; immunoblot anti-FLAG
HA-tagged MCPH1 = target: T1, HA-tagged MCPH1 (UniProt Q8NEM0); assay: co-IP; anti-HA immunoprecipitation from whole-cell extracts of cells transfected with HA-tagged and FLAG-tagged constructs; immunoblot anti-FLAG and anti-TMEM67
T1 sequence: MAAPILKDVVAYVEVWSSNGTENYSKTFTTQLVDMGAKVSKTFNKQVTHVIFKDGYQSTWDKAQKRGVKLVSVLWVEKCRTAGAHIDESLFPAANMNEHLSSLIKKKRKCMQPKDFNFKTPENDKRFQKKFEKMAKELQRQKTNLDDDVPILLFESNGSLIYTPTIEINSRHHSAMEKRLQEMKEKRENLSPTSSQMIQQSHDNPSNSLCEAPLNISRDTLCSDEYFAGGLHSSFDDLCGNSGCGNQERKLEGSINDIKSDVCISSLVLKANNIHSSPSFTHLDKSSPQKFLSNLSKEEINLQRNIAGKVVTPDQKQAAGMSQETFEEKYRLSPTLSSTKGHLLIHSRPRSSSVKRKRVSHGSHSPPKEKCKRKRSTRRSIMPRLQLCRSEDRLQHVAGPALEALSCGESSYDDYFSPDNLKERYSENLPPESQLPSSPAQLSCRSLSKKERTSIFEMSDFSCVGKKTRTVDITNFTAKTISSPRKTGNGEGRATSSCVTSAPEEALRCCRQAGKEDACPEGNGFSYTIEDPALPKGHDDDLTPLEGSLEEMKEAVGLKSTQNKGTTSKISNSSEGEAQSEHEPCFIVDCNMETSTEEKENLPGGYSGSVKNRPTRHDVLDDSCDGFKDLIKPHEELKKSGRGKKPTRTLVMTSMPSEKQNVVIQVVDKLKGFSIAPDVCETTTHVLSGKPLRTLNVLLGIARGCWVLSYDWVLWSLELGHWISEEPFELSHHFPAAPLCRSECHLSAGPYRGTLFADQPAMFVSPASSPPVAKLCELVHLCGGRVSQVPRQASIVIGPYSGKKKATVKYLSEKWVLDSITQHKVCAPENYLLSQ

[2] = target: full-length exogenous HA-tagged TMEM67 (human) (UniProt Q5HYA8); assay: as above
[3] = target: T2, TMEM67-Nt protein, wild type (amino acids F39-T478) (human) (UniProt Q5HYA8); assay: in vitro plate binding assay with fluorescein-labelled protein; TMEM67-Nt proteins coated on Immunosorb 96-well plates in 100 mM bicarbonate/carbonate buffer pH 9.6 overnight at 4°C, blocked with 5% non-fat dried milk in PBS; fluorescence-labelled proteins in blocking buffer 2 h at room temperature, washed with PBS; retained fluorescence read; increasing amounts of TMEM67-Nt; purification of TMEM67-Nt not described; only the binder purified
T2 sequence: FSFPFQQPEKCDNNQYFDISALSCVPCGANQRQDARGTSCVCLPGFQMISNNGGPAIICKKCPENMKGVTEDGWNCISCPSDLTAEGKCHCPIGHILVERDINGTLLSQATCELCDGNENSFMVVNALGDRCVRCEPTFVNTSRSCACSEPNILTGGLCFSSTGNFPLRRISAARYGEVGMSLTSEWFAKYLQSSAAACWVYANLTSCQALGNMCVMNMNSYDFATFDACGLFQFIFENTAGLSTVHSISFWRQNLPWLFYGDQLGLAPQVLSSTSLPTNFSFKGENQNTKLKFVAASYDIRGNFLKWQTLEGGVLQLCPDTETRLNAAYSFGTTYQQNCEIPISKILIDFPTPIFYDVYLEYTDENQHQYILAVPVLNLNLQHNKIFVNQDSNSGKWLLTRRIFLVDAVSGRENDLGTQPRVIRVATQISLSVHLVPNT

[4] = target: T3, TMEM67-Nt protein (F39-T478) with missense mutation Q376P (human) (UniProt Q5HYA8); assay: as above
T3 sequence: T2 sequence with Q338P

[5] = target: T4, TMEM67-Nt protein (F39-T478) with missense mutation R440Q (human) (UniProt Q5HYA8); assay: as above
T4 sequence: T2 sequence with R402Q

[6] = target: T2, TMEM67-Nt protein, wild type (amino acids F39-T478) (human); assay: as above; remark: listed apart in the source
[7] = target: T5, TMEM67-Nt protein (F39-T478) with missense mutation M252T (human) (UniProt Q5HYA8); assay: as above
T5 sequence: T2 sequence with M214T

[8] = target: T6, TMEM67-Nt protein (F39-T478) with missense mutation L349S (human) (UniProt Q5HYA8); assay: as above
T6 sequence: T2 sequence with L311S

## FLAG-tagged ROR2 (receptor-tyrosine-kinase-like orphan receptor 2) (from UniProt Q9Z138 34-944)
[1]
  binding: binds
HA-tagged MCPH1
  binding: no binding
[2]
  binding: binds

## fluorescein-labelled purified BSA (from UniProt P02769 25-607)
[3]
  binding: no binding

B1: fluorescein-labelled purified recombinant Wnt5a (ligand, UniProt P22725 62-380)
chain: IIGAQPLCSQLAGLSQGQKKLCHLYQDHMQYIGEGAKTGIKECQYQFRHRRWNCSTVDNTSVFGRVMQIGSRETAFTYAVSAAGVVNAMSRACREGELSTCGCSRAARPKDLPRDWLWGGCGDNIDYGYRFAKEFVDARERERIHAKGSYESARILMNLHNNEAGRRTVYNLADVACKCHGVSGSCSLKTCWLQLADFRKVGDALKEKYDSAAAMRLNSRGKLVQVNSRFNSPTTQDLVYIDPSPDYCVRNESTGSLGTQGRLCNKTSEGMDGCELMCCGRGYDQFKTVQTERCHCKFHWCCYVKCKKCTEIVDQFVCK
modifications: labelled with NHS-fluorescein
[4]
  binding: no binding
[5]
  binding: no binding
[6]
  binding: binds
[7]
  binding: no binding
[8]
  binding: no binding

B2: FLAG-MCPH1 (protein, UniProt Q8NEM0 1-835)
chain: T1 sequence
[1]
  binding: no binding
